# Measurements: PubChem BioAssay (EPA / NIEHS)
# Values joined by “and” are separate entries in the source; they are usually repeats but may differ in a detail not shown here. Identical values can stand only once. For some assays here: Shown are results outside the selection of hits, which stands elsewhere. Results filed as inconclusive are left out. More than one record can exist for a structure, and the calls need not agree. Only a part is listed here, and it is no random draw. Active and inactive are the calls of the source. How the source made its calls, unless noted: active means hit-call score of the fitted dose curve at least 0.9, where 1 is the maximum; inactive means score below 0.9.
# Assays:
# [1] = biological target: human Peroxisome Proliferator-activated Receptor alpha (PPARa), PPARA (gene 5465) (UniProt Q07869); assay: ATG_PPARa_TRANS: Attagene TRANS-FACTORIAL HepG2 Assay for human Peroxisome Proliferator-activated Receptor alpha (PPARa) (AID 2283001; active means hit-call score of the fitted dose curve at least 0.9, where 1 is the maximum)
# Outline: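 Cells (HepG2) are transfected with multiple reporter transcription units, exposed to chemical for 24 h, then total RNA is reverse-transcribed and amplified. Labelled products are quantified by capillary electrophoresis; induction is referenced to DMSO.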
# [2] = biological target: human Thyroid Receptor alpha (THRa1), THRA (gene 7067) (UniProt P10827); assay: ATG_THRa1_TRANS: Attagene TRANS-FACTORIAL HepG2 Assay for human Thyroid Receptor alpha (THRa1) (AID 2283014; active means hit-call score of the fitted dose curve at least 0.9, where 1 is the maximum)
# Outline: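 First, HepG2 cells receive multiple GAL4-UAS reporter units and the chimeric receptor. They are then dosed for 24 h, after which RNA is reverse-transcribed, amplified, labelled, HpaI-cut and sized by capillary electrophoresis; gain relative to DMSO is scored.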
# [3] = read-out: E-selectin (Homo sapiens) (UniProt P16581); assay: BSK_3C_Eselectin: BioMAP Diversity Plus: 3C Assay for Eselectin Biomarker Activity (AID 2283015); details: actives raise or lower the signal; primary human endothelial cells (HUVEC)
# Outline: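 Human vascular endothelium from umbilical vein is exposed to test chemicals for 24 h. E-selectin levels are read by ELISA and compared with DMSO controls.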
# [4] = read-out: Interleukin-1 alpha (IL1a), IL1A (gene 3552); assay: BSK_BE3C_IL1a: BioMAP Diversity Plus: BE3C Assay for Interleukin-1 alpha (IL1a) Biomarker Activity (AID 2283016); details: actives raise or lower the signal; primary human bronchial epithelial cells
# Outline: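 Signal from IL-1a ELISA, taken 24 h after chemical dosing of human bronchial epithelial cells, is compared with DMSO as baseline using bidirectional curve fitting.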
# [5] = BSK_4H_SRB: Viability Assessment in the BioMAP Diversity Plus: 4H Assay (AID 2283027); details: primary human endothelial cells (HUVEC);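 further: cells exposed to compound for 24 h before staining; curves fitted both ways versus DMSO so AC50 may be loss or gain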
# Outline: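 Cytotoxicity readout: sulforhodamine B (0.1%) staining of total protein after 10% TCA fixation, measured at 560 nm in human umbilical vein endothelium at 24 h. DMSO set the baseline; fitting was bidirectional.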
# [6] = read-out: Vascular endothelial growth factor receptor 2 (Homo sapiens) (UniProt P35968); assay: BSK_4H_VEGFRII: BioMAP Diversity Plus: 4H Assay for Vascular endothelial growth factor receptor 2 (VEGFR2) Biomarker Activity (AID 2283031); details: actives raise or lower the signal; primary human endothelial cells (HUVEC);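 further: cell-surface VEGFR2 protein level quantified by ELISA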
# Outline: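 VEGFRII levels on human vascular endothelial primary cells were determined by ELISA at 24 hours post-dosing, with gain- or loss-of-signal fitted against DMSO controls.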
# [7] = BSK_hDFCGF_SRB: Viability Assessment in the BioMAP Diversity Plus: hDFCGF Assay (AID 2283061); details: primary human foreskin fibroblasts;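 further: cells exposed to compound for 24 h before the read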
# Outline: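 Cells were dosed with test chemical, cultured 24 h, fixed with 10% TCA, then stained with 0.1% SRB and read at 560 nm. The fibroblasts were human foreskin primary cells, and DMSO served as baseline.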
# [8] = read-out: Monokine induced gamma interferon (MIG), CXCL9 (gene 4283); assay: BSK_hDFCGF_MIG: BioMAP Diversity Plus: hDFCGF Assay for Monokine induced gamma interferon (MIG) Biomarker Activity (AID 2283063); details: actives raise or lower the signal; primary human foreskin fibroblasts
# Outline: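 MIG signal, determined by ELISA, reflects 24 h chemical exposure of human skin primary fibroblasts. DMSO serves as negative control and baseline.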
# [9] = read-out: Plasminogen activator inhibitor-1 (PAI1), SERPINE1 (gene 5054); assay: BSK_hDFCGF_PAI1: BioMAP Diversity Plus: hDFCGF Assay for Plasminogen activator inhibitor-1 (PAI1) Biomarker Activity (AID 2283066); details: actives raise or lower the signal; primary human foreskin fibroblasts
# Outline: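 Fibroblasts from human foreskin were treated with test chemical. After 24 h, PAI-1 was measured by ELISA. Activity was fitted in both directions relative to DMSO.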
# [10] = BSK_KF3CT_SRB: Viability Assessment in the BioMAP Diversity Plus: KF3CT Assay (AID 2283069); details: primary human keratinocytes with fibroblasts;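 further: read 24 h after compound addition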
# Outline: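 Overt cytotoxicity is assessed as total protein by sulforhodamine B staining in parallel human skin co-cultures at 24 h after dosing. DMSO serves as negative control and baseline.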
# [11] = read-out: TIMP metallopeptidase inhibitor 2 (TIMP2), TIMP2 (gene 7077); assay: BSK_KF3CT_TIMP2: BioMAP Diversity Plus: KF3CT Assay for TIMP metallopeptidase inhibitor 2 (TIMP2) Biomarker Activity (AID 2283071); details: actives raise or lower the signal; primary human keratinocytes with fibroblasts
# Outline: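 Chemicals were dosed onto human skin primary co-cultures of keratinocytes and foreskin fibroblasts, and TIMP-2 was measured by ELISA after 24 hours. Activity in either direction was fitted relative to DMSO.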
# [12] = read-out: Interleukin-1 alpha (IL1a), IL1A (gene 3552); assay: BSK_LPS_IL1a: BioMAP Diversity Plus: LPS Assay for Interleukin-1 alpha (IL1a) Biomarker Activity (AID 2283080); details: actives raise or lower the signal; primary human HUVEC with PBMC
# Outline: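 Measured: IL-1 alpha via ELISA at 24 h in LPS-activated human umbilical vein endothelium–PBMC co-culture. Baseline: DMSO, bidirectional fitting.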
# [13] = read-out: Tissue Factor, F3 (gene 2152); assay: BSK_LPS_TissueFactor: BioMAP Diversity Plus: LPS Assay for Tissue Factor Biomarker Activity (AID 2283084); details: actives raise or lower the signal; primary human HUVEC with PBMC
# Outline: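 In this co-culture system of umbilical vein endothelium with PBMC, stimulated with LPS, cell-surface CD142 is detected by ELISA at 24 h. Endpoint values derive from bidirectional fitting, DMSO serving as baseline.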
# CD69, CD69 (gene 969) = assay: BSK_SAg_CD69: BioMAP Diversity Plus: SAg Assay for CD69 Biomarker Activity (AID 2283089); details: actives raise or lower the signal; primary human HUVEC with PBMC;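 further: cell surface CD69 protein quantified by ELISA with fluorescence detection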
# Outline: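 Values derive from bidirectional fitting relative to DMSO vehicle. Cells: umbilical vein endothelium plus peripheral blood mononuclear cells, treated 24 h before fluorescent ELISA for CD69.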
# [14] = BSK_SAg_Proliferation: Cell Proliferation Assessment in the BioMAP Diversity Plus: SAg Assay (AID 2283095); details: primary human HUVEC with PBMC;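 further: relative cell number as total protein by SRB absorbance in sub-confluent culture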
# Outline: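 Absorbance of sulforhodamine B at 560 nm reports total protein in a human vascular endothelial/PBMC co-culture after 96 h chemical exposure. Gain or loss of signal is fitted in both directions against DMSO.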
# [15] = BSK_SAg_SRB: Viability Assessment in the BioMAP Diversity Plus: SAg Assay (AID 2283096); details: primary human HUVEC with PBMC;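 further: cells read one day after compound addition; hits may be either gain or loss of signal compared with DMSO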
# Outline: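 This overt-cytotoxicity endpoint quantifies protein in human endothelial/PBMC co-cultures at 24 h using SRB absorbance (560 nm) after trichloroacetic acid fixation. Values reflect signal change from the DMSO negative control, fitted bidirectionally.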
# [16] = biological target: human CYP1A2, CYP1A2 (gene 1544) (UniProt P05177); assay: NVS_ADME_hCYP1A2: NovaScreen (NVS) CYP450-related Enzyme Activity (ADME) Assay for human CYP1A2 (AID 2283102; active means hit-call score of the fitted dose curve at least 0.9, where 1 is the maximum)
# Outline: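 Compounds were tested at 10 uM in duplicate against recombinant CYP1A2 produced in insect cells. Enzyme activity was measured by fluorescence 0.5 h after dosing, with loss of signal versus acetonitrile control. Active compounds were re-tested in concentration series.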
# [17] = biological target: rat CYP2C13, Cyp2c13 (gene 171521) (UniProt P20814); assay: NVS_ADME_rCYP2C13: NovaScreen (NVS) CYP450-related Enzyme Activity (ADME) Assay for rat CYP2C13 (AID 2283121; active means hit-call score of the fitted dose curve at least 0.9, where 1 is the maximum)
# [18] = biological target: human Beta-secretase (BACE), BACE1 (gene 23621) (UniProt P56817); assay: NVS_ENZ_hBACE: NovaScreen (NVS) Enzymatic Assay for human Beta-secretase (BACE) (AID 2283140; active means hit-call score of the fitted dose curve at least 0.9, where 1 is the maximum;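 further: hits are inhibitors that reduce fluorescent substrate signal versus DMSO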)
# [19] = biological target: human Serotonin, 5-Hydroxytryptamine Receptor 7 (5HT7), HTR7 (gene 3363) (UniProt P34969); assay: NVS_GPCR_h5HT7: NovaScreen (NVS) G Protein-Coupled Receptor Assay for human Serotonin, 5-Hydroxytryptamine Receptor 7 (5HT7) (AID 2283255; active means hit-call score of the fitted dose curve at least 0.9, where 1 is the maximum;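 further: hits reduce specific radioligand binding relative to DMSO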)
# Outline: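 Filter-bound radioactivity counted after 1 h, with loss of specific radioligand binding fitted against DMSO. Membrane protein came from CHO cells expressing human 5HT7. Chemicals were tested first at 25 uM in duplicate, then in concentration series if active.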
# NCBI gene 100848466 = assay: NVS_NR_bPR: NovaScreen (NVS) Nuclear Receptor Binding Assay for bovine Progextron Receptor (PR) (AID 2283343; active means hit-call score of the fitted dose curve at least 0.9, where 1 is the maximum;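 further: actives lower bound radioligand signal below DMSO meaning displacement of the label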)
# [20] = biological target: Bile acid receptor (Homo sapiens) (UniProt Q96RI1); assay: NVS_NR_hFXR_Antagonist: NovaScreen (NVS) Nuclear Receptor Binding Assay for human Farnesoid X Receptor Antagonism (FXR) (AID 2283350; active means hit-call score of the fitted dose curve at least 0.9, where 1 is the maximum)
# Outline: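 Antagonist-format time-resolved FRET binding assay with extracted human receptor protein, read 1 hour after compound addition. Compounds first screened at 25 uM in duplicate, then actives tested in concentration series, with loss of signal relative to DMSO.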
# [21] = biological target: Retinoic acid receptor RXR-alpha (Homo sapiens) (UniProt P19793); assay: OT_NURR1_NURR1RXRa_1440: Odyssey Thera (OT) 24-hour HEK293T Protein Complementation Assay for Nurr1/retinoid X receptor (RXR) (AID 2283386; active means hit-call score of the fitted dose curve at least 0.9, where 1 is the maximum)
# Outline: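 Steps: fragment-tagged Nurr1 and RXRα expressed in HEK293T; compounds added; after 24 h, complemented reporter quantified by fluorescence intensity; signal increase over DMSO fitted as the single endpoint.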
# [22] = CEETOX_H295R_CORTISOL: CeeTox H295R High-throughput Steroidogenesis Assay for Cortisol (AID 2283438); details: actives raise or lower the signal;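 further: cortisol secreted into medium quantified by LC-MS/MS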
# Outline: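 Cortisol synthesis by H295R cells is measured 48 h after chemical dosing, following a 48 h stimulation with 10 uM forskolin. Hormone is extracted and quantified by HPLC-MS/MS, and activity is fitted bidirectionally against the DMSO control.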
# [23] = ArunA_NOG_NeuriteLength: ArunA Biomedical's Neurite Outgrowth (NOG) Assay for Neurite Length (AID 2283757; active means hit-call score of the fitted dose curve at least 0.9, where 1 is the maximum)
# Outline: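 Total neurite length per neuron, from traced βIII-tubulin-labelled processes longer than 10 um on viable Hoechst-gated cells, was scored as decrease from DMSO. Cells were hESC (H9)-derived neurons given 48 h chemical exposure immediately after seeding.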
# [24] = test system: zebrafish Estrogen Receptor (ESR2B), gene 317733; assay: ATG_zfER2b_XSP1: Attagene TRANS-FACTORIAL Multi-Species (XSP1) HepG2 Assay for zebrafish Estrogen Receptor (ESR2B) (AID 2283773; active means hit-call score of the fitted dose curve at least 0.9, where 1 is the maximum)
# Outline: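 Human hepatoma HepG2, transiently transfected with multi-reporter units; exogenous zebrafish ESR2B-Gal4 activity measured. Exposure 24 h alongside 3 nM 6-alpha-fluorotestosterone to partly stimulate AR.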
# [25] = test system: Sodium/Iodide Symporter (NIS), SLC5A5 (gene 6528); assay: CPHEA_Stoker_NIS_Inhibition_RAIU: CPHEA's Radioactive Iodide Uptake (RAIU) Assay for Sodium/Iodide Symporter (NIS) Inhibition, Stoker and Laws Labs (AID 2283841; active means hit-call score of the fitted dose curve at least 0.9, where 1 is the maximum)
# Outline: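 Test chemicals, six concentrations from 0.001 to 100uM in 0.5% DMSO, were co-incubated with carrier-free 125I (final 329pM) on hNIS-HEK293T-EPA monolayers in pH 7.4 HEPES-buffered HBSS. Plates stood 2 hours at room temperature, then were washed cold and counted.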
# [26] = CCTE_Simmons_MITO_max_resp_rate: CCTE's HepG2 Seahorse XF Respirometric Screening Assay at Maximal Respiratory State [uncoupled], Simmons Lab (AID 2284002); details: actives raise or lower the signal
# Outline: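 Maximal respiration in HepG2 cells is recorded as OCR by Seahorse XF following FCCP injection. Compounds span 125 nM–100 uM final; activity is called in either direction against DMSO.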
# IYD (gene 389434) = assay: CCTE_GLTED_hIYD: CCTE's human Iodotyrosine Deiodinase (xIYD) Inhibition Assay, Great Lakes Toxicology and Ecology Division (GLTED) Lab (AID 2284317; active means hit-call score of the fitted dose curve at least 0.9, where 1 is the maximum;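 further: cell-free human IYD enzyme made in baculovirus insect cells; iodide freed from monoiodotyrosine measured by cerium arsenite color change at 420 nm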)
# Outline: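 Deiodination of MIT by insect-cell-produced human IYD is measured after a 3 h incubation with test chemical. Free iodide passes through a Dowex column and accelerates Sandell-Kolthoff Ce4+ reduction, read at 420 nm; run in triplicate.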
# Chain of UniProt Q96RI1 (Q96RI1 whole entry, looked up): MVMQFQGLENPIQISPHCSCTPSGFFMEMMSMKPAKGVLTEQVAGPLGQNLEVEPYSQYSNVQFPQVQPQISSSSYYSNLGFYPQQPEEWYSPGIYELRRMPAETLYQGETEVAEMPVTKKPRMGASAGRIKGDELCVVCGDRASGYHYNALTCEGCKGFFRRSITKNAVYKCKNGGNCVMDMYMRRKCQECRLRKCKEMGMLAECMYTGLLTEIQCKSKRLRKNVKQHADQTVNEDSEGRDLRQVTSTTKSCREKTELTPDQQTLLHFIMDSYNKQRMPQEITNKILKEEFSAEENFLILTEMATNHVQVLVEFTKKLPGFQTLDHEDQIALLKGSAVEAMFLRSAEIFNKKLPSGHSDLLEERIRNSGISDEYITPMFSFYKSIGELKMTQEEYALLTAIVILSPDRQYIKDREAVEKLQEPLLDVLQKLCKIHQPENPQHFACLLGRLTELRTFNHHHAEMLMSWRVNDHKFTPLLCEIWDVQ
# Chain of UniProt P20814 (P20814 whole entry, looked up): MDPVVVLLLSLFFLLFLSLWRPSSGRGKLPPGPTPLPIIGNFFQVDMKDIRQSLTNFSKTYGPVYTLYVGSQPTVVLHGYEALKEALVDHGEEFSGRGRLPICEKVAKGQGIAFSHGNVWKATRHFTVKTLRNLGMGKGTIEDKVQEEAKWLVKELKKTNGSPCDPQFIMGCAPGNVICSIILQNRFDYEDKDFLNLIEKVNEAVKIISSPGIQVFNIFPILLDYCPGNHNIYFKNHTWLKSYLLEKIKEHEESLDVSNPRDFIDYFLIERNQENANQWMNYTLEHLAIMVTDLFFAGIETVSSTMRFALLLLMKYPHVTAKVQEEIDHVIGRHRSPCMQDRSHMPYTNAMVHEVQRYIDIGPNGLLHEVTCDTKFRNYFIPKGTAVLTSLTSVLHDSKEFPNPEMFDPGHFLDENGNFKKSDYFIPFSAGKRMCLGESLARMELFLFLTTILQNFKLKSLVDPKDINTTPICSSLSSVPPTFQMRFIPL
# Chain of UniProt P10827 (P10827 whole entry, looked up, the tested form may be a part): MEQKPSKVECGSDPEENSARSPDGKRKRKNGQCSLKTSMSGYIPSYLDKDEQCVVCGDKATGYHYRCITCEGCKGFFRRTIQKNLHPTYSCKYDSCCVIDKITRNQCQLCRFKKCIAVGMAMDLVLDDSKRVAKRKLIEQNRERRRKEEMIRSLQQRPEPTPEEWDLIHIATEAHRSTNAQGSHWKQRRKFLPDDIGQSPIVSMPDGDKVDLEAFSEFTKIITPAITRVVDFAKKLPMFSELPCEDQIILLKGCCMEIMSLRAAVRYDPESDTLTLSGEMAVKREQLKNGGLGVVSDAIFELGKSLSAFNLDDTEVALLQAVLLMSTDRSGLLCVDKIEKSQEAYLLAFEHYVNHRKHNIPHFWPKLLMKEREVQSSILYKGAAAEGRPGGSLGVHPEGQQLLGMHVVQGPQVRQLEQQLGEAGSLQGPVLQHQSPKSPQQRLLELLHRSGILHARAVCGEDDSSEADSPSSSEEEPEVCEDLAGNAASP
# Chain of UniProt P34969 (P34969 whole entry, looked up): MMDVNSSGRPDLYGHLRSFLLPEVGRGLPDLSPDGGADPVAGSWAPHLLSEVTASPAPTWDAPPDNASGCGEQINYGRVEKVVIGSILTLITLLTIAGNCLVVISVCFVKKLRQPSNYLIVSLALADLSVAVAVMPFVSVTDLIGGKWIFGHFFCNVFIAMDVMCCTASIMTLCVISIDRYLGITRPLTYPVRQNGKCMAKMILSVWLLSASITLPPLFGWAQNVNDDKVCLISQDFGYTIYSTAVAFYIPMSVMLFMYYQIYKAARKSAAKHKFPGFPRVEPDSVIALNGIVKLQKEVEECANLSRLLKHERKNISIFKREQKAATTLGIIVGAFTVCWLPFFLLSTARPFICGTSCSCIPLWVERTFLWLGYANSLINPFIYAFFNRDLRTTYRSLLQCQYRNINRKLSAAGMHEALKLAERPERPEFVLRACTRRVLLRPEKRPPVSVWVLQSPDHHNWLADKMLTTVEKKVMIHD
# Chain of UniProt P56817 (P56817 whole entry, looked up): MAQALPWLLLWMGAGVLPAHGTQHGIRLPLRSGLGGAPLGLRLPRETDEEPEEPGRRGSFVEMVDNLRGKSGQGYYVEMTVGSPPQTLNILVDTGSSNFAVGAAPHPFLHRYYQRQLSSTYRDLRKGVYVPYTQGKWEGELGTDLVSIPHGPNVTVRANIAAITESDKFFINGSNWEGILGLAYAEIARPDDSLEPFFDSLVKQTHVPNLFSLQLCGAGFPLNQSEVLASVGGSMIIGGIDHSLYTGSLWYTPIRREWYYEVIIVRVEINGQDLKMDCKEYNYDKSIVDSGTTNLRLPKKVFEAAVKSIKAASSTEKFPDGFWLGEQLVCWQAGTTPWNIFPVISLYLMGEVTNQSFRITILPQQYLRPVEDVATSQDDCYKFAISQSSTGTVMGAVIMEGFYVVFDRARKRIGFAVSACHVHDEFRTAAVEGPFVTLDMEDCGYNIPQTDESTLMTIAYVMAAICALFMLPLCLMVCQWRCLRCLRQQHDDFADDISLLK
# Chain of UniProt P19793 (P19793 whole entry, looked up, the tested form may be a part): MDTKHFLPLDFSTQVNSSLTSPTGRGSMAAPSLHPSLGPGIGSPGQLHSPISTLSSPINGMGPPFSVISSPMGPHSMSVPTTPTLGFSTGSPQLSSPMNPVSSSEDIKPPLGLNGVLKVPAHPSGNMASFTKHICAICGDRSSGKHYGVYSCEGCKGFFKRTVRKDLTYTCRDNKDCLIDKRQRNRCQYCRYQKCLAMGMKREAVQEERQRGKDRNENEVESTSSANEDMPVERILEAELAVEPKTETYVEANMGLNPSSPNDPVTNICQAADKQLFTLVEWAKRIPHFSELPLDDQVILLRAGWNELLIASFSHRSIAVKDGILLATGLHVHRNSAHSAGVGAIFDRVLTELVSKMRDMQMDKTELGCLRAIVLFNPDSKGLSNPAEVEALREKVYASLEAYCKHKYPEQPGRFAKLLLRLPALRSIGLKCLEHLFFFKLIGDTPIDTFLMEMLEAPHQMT
# Chain of UniProt P16581 (P16581 whole entry, looked up): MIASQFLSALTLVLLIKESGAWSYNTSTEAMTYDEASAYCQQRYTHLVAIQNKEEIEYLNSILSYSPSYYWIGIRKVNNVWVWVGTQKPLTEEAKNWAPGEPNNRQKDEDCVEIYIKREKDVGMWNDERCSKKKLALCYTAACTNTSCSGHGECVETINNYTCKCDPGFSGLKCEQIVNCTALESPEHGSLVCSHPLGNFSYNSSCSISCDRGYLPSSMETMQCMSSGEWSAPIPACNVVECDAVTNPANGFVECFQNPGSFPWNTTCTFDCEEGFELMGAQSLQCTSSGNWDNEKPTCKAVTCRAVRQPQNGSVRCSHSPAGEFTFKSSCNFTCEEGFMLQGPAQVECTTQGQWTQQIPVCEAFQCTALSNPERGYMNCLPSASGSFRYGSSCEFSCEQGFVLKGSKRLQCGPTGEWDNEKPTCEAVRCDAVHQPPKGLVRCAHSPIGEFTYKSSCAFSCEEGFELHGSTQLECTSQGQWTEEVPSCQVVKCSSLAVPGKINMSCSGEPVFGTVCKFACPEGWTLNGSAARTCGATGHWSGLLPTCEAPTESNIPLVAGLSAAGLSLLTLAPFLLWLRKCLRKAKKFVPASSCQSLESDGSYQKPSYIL
# Chain of UniProt P05177 (P05177 whole entry, looked up): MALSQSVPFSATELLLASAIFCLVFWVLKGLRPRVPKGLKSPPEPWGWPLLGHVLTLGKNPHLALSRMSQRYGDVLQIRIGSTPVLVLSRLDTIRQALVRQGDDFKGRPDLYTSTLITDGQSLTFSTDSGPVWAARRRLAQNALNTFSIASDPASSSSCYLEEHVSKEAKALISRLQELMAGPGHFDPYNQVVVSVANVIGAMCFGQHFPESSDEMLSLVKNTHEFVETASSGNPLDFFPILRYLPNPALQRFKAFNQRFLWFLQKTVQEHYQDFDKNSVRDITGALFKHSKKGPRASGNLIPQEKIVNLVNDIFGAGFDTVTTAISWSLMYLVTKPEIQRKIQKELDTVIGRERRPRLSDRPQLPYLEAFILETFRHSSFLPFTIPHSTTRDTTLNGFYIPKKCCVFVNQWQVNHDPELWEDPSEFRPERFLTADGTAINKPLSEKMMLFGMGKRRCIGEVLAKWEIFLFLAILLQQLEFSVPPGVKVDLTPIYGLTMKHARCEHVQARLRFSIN
# Chain of UniProt Q07869 (Q07869 whole entry, looked up): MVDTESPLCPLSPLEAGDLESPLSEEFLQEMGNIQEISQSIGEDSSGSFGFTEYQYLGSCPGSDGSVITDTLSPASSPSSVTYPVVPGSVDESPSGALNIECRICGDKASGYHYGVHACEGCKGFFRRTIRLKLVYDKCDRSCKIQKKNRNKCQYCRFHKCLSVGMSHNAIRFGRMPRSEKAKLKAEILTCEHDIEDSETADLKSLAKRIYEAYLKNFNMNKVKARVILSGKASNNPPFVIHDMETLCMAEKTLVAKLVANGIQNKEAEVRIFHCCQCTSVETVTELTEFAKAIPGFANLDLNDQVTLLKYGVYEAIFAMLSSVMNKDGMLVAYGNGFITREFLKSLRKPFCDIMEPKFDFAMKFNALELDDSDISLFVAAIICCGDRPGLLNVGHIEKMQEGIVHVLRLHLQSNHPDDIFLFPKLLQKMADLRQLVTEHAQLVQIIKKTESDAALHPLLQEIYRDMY
smiles,measurement,setting,value
Oc1cc(Cl)ccc1Oc1ccc(Cl)cc1Cl,outcome,[1],inactive
same,outcome,[2],inactive
same,AC50,[3],active: 15.7 µM
same,AC50,[4],active: 33.8 µM
same,AC50,[5],active: 14 µM
same,AC50,[6],active: 5.24 µM
same,AC50,[7],active: 10.6 µM
same,AC50,[8],active: 11.7 µM
same,AC50,[9],active: 11.9 µM
same,AC50,[10],active: 10.5 µM
same,AC50,[11],active: 28.4 µM
same,AC50,[12],active: 13.3 µM
same,AC50,[13],active: 15 µM
same,AC50,"CD69, CD69 (gene 969)",active: 14.8 µM
same,AC50,[14],active: 8.84 µM
same,AC50,[15],active: 15 µM
same,outcome,[16],inactive
same,AC50,[17],active: 14.7 µM
same,AC50,[18],active: 20.7 µM
same,outcome,[19],inactive
same,AC50,NCBI gene 100848466,active: 20 µM
same,outcome,[20],inactive
same,AC50,[21],active: 11.8 µM
same,outcome,[22],inactive
same,outcome,[23],inactive
same,AC50,[24],active: 13.8 µM
same,AC50,[25],active: 8.69 µM and active: 10.4 µM
same,outcome,[26],inactive
same,AC50,IYD (gene 389434),active: 42.9 µM
